IC50 is the fitted dose that halves viability relative to control wells, and lower means more sensitive; a fit beyond the top or the lowest dose is shown as a bound at that dose. The AUC spans the tested range (256-fold, ending at the top dose) of the same fit; the more sensitive the line, the further below 1. Where the top dose is marked as inferred, it was calculated from the reported fits. For some assays here: An entry number marks a drug with two screens in the source, which often give different values.
Legend:
Assay in all cases: Viability of human cancer cell lines after 72 h of drug (GDSC screen)
[1] = compound: CC(C)=CC[C@@H](O)C1=CC(=O)c2c(O)ccc(O)c2C1=O [Shikonin]; details: top dose 16 µM; top dose inferred
Method: (§1)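 Human cancer cell lines in 384-well plates, medium with 10% serum, drug for 72 h over a 256-fold dose range (nine 2-fold or five 4-fold steps up to the top dose). Adherent lines were fixed and stained with the nucleic acid dye Syto60, suspension lines read with resazurin; signal relative to control wells, capped at 0 and 100%. One two-parameter sigmoid per drug and line, fitted in a mixed model over all curves with the slope shared within a line.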

[2] = compound: CNC(=O)c1ccc(Nc2cc(Nc3ccccc3S(=O)(=O)C(C)C)c3cc[nH]c3n2)nc1 [HG-5-113-01]; details: top dose 10 µM; top dose inferred
Method: as §1

[3] = compound: Cc1cc(N2CCOCC2)cc2[nH]c(-c3c(NC[C@@H](O)c4cccc(Cl)c4)cc[nH]c3=O)nc12 [BMS-536924]; details: top dose 4 µM; screen: GDSC drug entry 1091; top dose inferred
Method: as §1

[4] = compound: Cc1ccc(-n2nc(C(C)(C)C)cc2NC(=O)Nc2ccc(OCCN3CCOCC3)c3ccccc23)cc1 [BIRB 0796]; details: top dose 10 µM; top dose inferred
Method: as §1

[5] = compound: Cc1cccc(-c2[nH]c(C(C)(C)C)nc2-c2ccc3nccnc3c2)n1 [SB-525334]; details: top dose 20 µM; top dose inferred
Method: as §1

[6] = compound: NC(=O)c1ccc(N(C(N)=O)c2c(F)cccc2F)nc1-c1ccc(F)cc1F [VX-702]; details: top dose 2 µM; top dose inferred
Method: as §1

[7] = compound: O=C(c1cc(Cc2n[nH]c(=O)c3ccccc23)ccc1F)N1CCN(C(=O)C2CC2)CC1 [Olaparib]
Method: as §1

[8] = compound: O=C1NC(=O)c2c1c(-c1ccccc1Cl)cc1[nH]c3ccc(O)cc3c21 [Wee1 inhibitor 681640]; details: top dose 2 µM; top dose inferred
Method: as §1

[9] = top dose 5 µM, screen: GDSC drug entry 1017, top dose inferred
[10] = top dose 10 µM, screen: GDSC drug entry 1495

## HT-115 (large intestine, adherent)
[1]
  AUC: 0.702
  IC50: 3.5 µM
[2]
  AUC: 0.738
  IC50: 2.78 µM
[3]
  AUC: 0.947
  IC50: > 4 µM
[4]
  AUC: 0.988
  IC50: > 10 µM
[5]
  AUC: 0.985
  IC50: > 20 µM
[6]
  AUC: 0.991
  IC50: > 2 µM
[7]; [9]
  AUC: 0.991
  IC50: > 5 µM
[7]; [10]
  AUC: 0.991
  IC50: > 10 µM
[8]
  AUC: 0.989
  IC50: > 2 µM

## HT-1197 (bladder, adherent)
[1]
  AUC: 0.345
  IC50: 0.341 µM
[2]
  AUC: 0.894
  IC50: > 10 µM
[3]
  AUC: 0.947
  IC50: > 4 µM
[4]
  AUC: 0.966
  IC50: > 10 µM
[5]
  AUC: 0.985
  IC50: > 20 µM
[6]
  AUC: 0.985
  IC50: > 2 µM
[7]; [9]
  AUC: 0.985
  IC50: > 5 µM
[7]; [10]
  AUC: 0.913
  IC50: > 10 µM
[8]
  AUC: 0.959
  IC50: > 2 µM

## Hs683 (glioma, adherent)
[1]
  AUC: 0.42
  IC50: 0.603 µM
[2]
  AUC: 0.881
  IC50: > 10 µM
[3]
  AUC: 0.974
  IC50: > 4 µM
[4]
  AUC: 0.967
  IC50: > 10 µM
[5]
  AUC: 0.986
  IC50: > 20 µM
[6]
  AUC: 0.985
  IC50: > 2 µM
[7]; [9]
  AUC: 0.988
  IC50: > 5 µM
[7]; [10]
  AUC: 0.986
  IC50: > 10 µM
[8]
  AUC: 0.951
  IC50: > 2 µM

## Hs939-T (melanoma, adherent)
[1]
  AUC: 0.333
  IC50: 0.326 µM
[2]
  AUC: 0.912
  IC50: > 10 µM
[3]
  AUC: 0.917
  IC50: > 4 µM
[4]
  AUC: 0.941
  IC50: > 10 µM
[5]
  AUC: 0.93
  IC50: > 20 µM
[6]
  AUC: 0.985
  IC50: > 2 µM
[7]; [9]
  AUC: 0.969
  IC50: > 5 µM
[7]; [10]
  AUC: 0.975
  IC50: > 10 µM
[8]
  AUC: 0.986
  IC50: > 2 µM

## HuH-7 (liver, adherent)
[1]
  AUC: 0.52
  IC50: 1.13 µM
[2]
  AUC: 0.788
  IC50: 4.37 µM
[3]
  AUC: 0.878
  IC50: > 4 µM
[4]
  AUC: 0.959
  IC50: > 10 µM
[5]
  AUC: 0.925
  IC50: > 20 µM
[6]
  AUC: 0.987
  IC50: > 2 µM
[7]; [9]
  AUC: 0.981
  IC50: > 5 µM
[7]; [10]
  AUC: 0.941
  IC50: > 10 µM
[8]
  AUC: 0.977
  IC50: > 2 µM

## HuO9 (osteosarcoma, adherent)
[1]
  AUC: 0.586
  IC50: 1.77 µM
[2]
  AUC: 0.792
  IC50: 5.08 µM
[3]
  AUC: 0.801
  IC50: 2.2 µM
[4]
  AUC: 0.943
  IC50: > 10 µM
[5]
  AUC: 0.961
  IC50: > 20 µM
[6]
  AUC: 0.969
  IC50: > 2 µM
[7]; [9]
  AUC: 0.963
  IC50: > 5 µM
[7]; [10]
  AUC: 0.931
  IC50: > 10 µM
[8]
  AUC: 0.835
  IC50: 1.52 µM

## HuP-T3 (pancreas, adherent)
[1]
  AUC: 0.558
  IC50: 1.49 µM
[2]
  AUC: 0.791
  IC50: 5.61 µM
[3]
  AUC: 0.808
  IC50: 2.66 µM
[4]
  AUC: 0.936
  IC50: > 10 µM
[5]
  AUC: 0.966
  IC50: > 20 µM
[6]
  AUC: 0.983
  IC50: > 2 µM
[7]; [9]
  AUC: 0.968
  IC50: > 5 µM
[7]; [10]
  AUC: 0.98
  IC50: > 10 µM
[8]
  AUC: 0.971
  IC50: > 2 µM

## HuP-T4 (pancreas, adherent)
[1]
  AUC: 0.511
  IC50: 1.08 µM
[2]
  AUC: 0.644
  IC50: 1.61 µM
[3]
  AUC: 0.786
  IC50: 1.85 µM
[4]
  AUC: 0.966
  IC50: > 10 µM
[5]
  AUC: 0.939
  IC50: > 20 µM
[6]
  AUC: 0.984
  IC50: > 2 µM
[7]; [9]
  AUC: 0.984
  IC50: > 5 µM
[8]
  AUC: 0.983
  IC50: > 2 µM

## IGR-1 (melanoma, adherent)
[1]
  AUC: 0.258
  IC50: 0.226 µM
[2]
  AUC: 0.832
  IC50: 5.36 µM
[3]
  AUC: 0.934
  IC50: > 4 µM
[4]
  AUC: 0.99
  IC50: > 10 µM
[5]
  AUC: 0.552
  IC50: 1.7 µM
[6]
  AUC: 0.984
  IC50: > 2 µM
[7]; [9]
  AUC: 0.974
  IC50: > 5 µM
[8]
  AUC: 0.948
  IC50: > 2 µM

## IHH-4 (thyroid, semi-adherent)
[1]
  AUC: 0.133
  IC50: 0.101 µM
[2]
  AUC: 0.659
  IC50: 1.56 µM
[3]
  AUC: 0.954
  IC50: > 4 µM
[4]
  AUC: 0.924
  IC50: > 10 µM
[5]
  AUC: 0.967
  IC50: > 20 µM
[6]
  AUC: 0.992
  IC50: > 2 µM
[7]; [9]
  AUC: 0.935
  IC50: > 5 µM
[7]; [10]
  AUC: 0.917
  IC50: 9.89 µM
[8]
  AUC: 0.865
  IC50: 1.22 µM

## JEG-3 (urogenital system, adherent)
[1]
  AUC: 0.579
  IC50: 1.61 µM
[2]
  AUC: 0.849
  IC50: 6.42 µM
[3]
  AUC: 0.954
  IC50: > 4 µM
[4]
  AUC: 0.967
  IC50: > 10 µM
[5]
  AUC: 0.991
  IC50: > 20 µM
[6]
  AUC: 0.991
  IC50: > 2 µM
[7]; [9]
  AUC: 0.98
  IC50: > 5 µM
[7]; [10]
  AUC: 0.952
  IC50: > 10 µM
[8]
  AUC: 0.883
  IC50: 1.77 µM

## JHH-1 (liver, adherent)
[1]
  AUC: 0.598
  IC50: 1.9 µM
[2]
  AUC: 0.856
  IC50: 9.22 µM
[3]
  AUC: 0.975
  IC50: > 4 µM
[4]
  AUC: 0.958
  IC50: > 10 µM
[5]
  AUC: 0.932
  IC50: > 20 µM
[6]
  AUC: 0.955
  IC50: > 2 µM
[7]; [9]
  AUC: 0.983
  IC50: > 5 µM
[7]; [10]
  AUC: 0.965
  IC50: > 10 µM
[8]
  AUC: 0.873
  IC50: > 2 µM

## K2 (melanoma, adherent)
[1]
  AUC: 0.655
  IC50: 3.08 µM
[2]
  AUC: 0.71
  IC50: 2.95 µM
[3]
  AUC: 0.902
  IC50: > 4 µM
[4]
  AUC: 0.971
  IC50: > 10 µM
[5]
  AUC: 0.953
  IC50: > 20 µM
[6]
  AUC: 0.982
  IC50: > 2 µM
[7]; [9]
  AUC: 0.976
  IC50: > 5 µM
[7]; [10]
  AUC: 0.975
  IC50: > 10 µM
[8]
  AUC: 0.981
  IC50: > 2 µM

## KMH-2 (thyroid, adherent)
[1]
  AUC: 0.34
  IC50: 0.379 µM
[2]
  AUC: 0.787
  IC50: 3.85 µM
[3]
  AUC: 0.83
  IC50: 2.15 µM
[4]
  AUC: 0.989
  IC50: > 10 µM
[5]
  AUC: 0.973
  IC50: > 20 µM
[6]
  AUC: 0.99
  IC50: > 2 µM
[7]; [9]
  AUC: 0.982
  IC50: > 5 µM
[7]; [10]
  AUC: 0.955
  IC50: > 10 µM
[8]
  AUC: 0.947
  IC50: > 2 µM

## KMRC-20 (kidney, adherent)
[1]
  AUC: 0.756
  IC50: 5.54 µM
[2]
  AUC: 0.877
  IC50: > 10 µM
[3]
  AUC: 0.95
  IC50: > 4 µM
[4]
  AUC: 0.989
  IC50: > 10 µM
[5]
  AUC: 0.984
  IC50: > 20 µM
[6]
  AUC: 0.984
  IC50: > 2 µM
[7]; [9]
  AUC: 0.946
  IC50: > 5 µM
[7]; [10]
  AUC: 0.983
  IC50: > 10 µM
[8]
  AUC: 0.889
  IC50: > 2 µM

## KYSE-50 (oesophagus, adherent)
[1]
  AUC: 0.284
  IC50: 0.26 µM
[2]
  AUC: 0.773
  IC50: 3.57 µM
[3]
  AUC: 0.897
  IC50: > 4 µM
[4]
  AUC: 0.984
  IC50: > 10 µM
[5]
  AUC: 0.988
  IC50: > 20 µM
[6]
  AUC: 0.99
  IC50: > 2 µM
[7]; [9]
  AUC: 0.99
  IC50: > 5 µM
[7]; [10]
  AUC: 0.982
  IC50: > 10 µM
[8]
  AUC: 0.941
  IC50: > 2 µM

Reference: the supplement of paper PMC4967469
